# From the antibiotic and cytotoxicity screens of Wong et al. (2023)
# This is one part of the list.
# Key:
# HSkMC = human skeletal muscle cells; test: cytotoxicity call (relative viability < 0.9); settings: 10 µM
# HepG2 = test: cytotoxicity call (relative viability < 0.9); settings: 10 µM
# S. aureus RN4220 = test: growth inhibition call (relative growth <= 0.2); settings: 50 µM
Structure (SMILES),cytotoxicity call (HSkMC),cytotoxicity call (HepG2),growth inhibition call (S. aureus RN4220)
C[N+](C)(C)CCO.[Cl-],inactive,inactive,inactive
O=S(=O)(NCC[C@H]1CC[C@@H](NS(=O)(=O)c2cccc(Cl)c2)[C@@H](CO)O1)c1cccc(F)c1,inactive,inactive,inactive
COCC#Cc1ccc2c(c1)O[C@H](CN(C)C(=O)Nc1ccccc1F)[C@@H](C)CN([C@@H](C)CO)S2(=O)=O,inactive,inactive,inactive
CN1C(=O)c2cc(NC(=O)Cc3cccs3)ccc2OC[C@@H]2O[C@H](CC(=O)NCCc3ccncc3)CC[C@H]21,inactive,inactive,inactive
C[C@@H]1CN([C@@H](C)CO)C(=O)Cc2cc(NS(=O)(=O)c3ccccc3)ccc2O[C@@H]1CN(C)S(=O)(=O)c1ccccc1,inactive,inactive,inactive
COC(=O)[C@@H](N)c1cccc(OC)c1,inactive,inactive,inactive
COc1ccc(NC(=O)Nc2ccc3c(c2)C(=O)N([C@@H](C)CO)C[C@H](C)[C@H](CN(C)Cc2ccncc2)OCCCC[C@H](C)O3)cc1,inactive,inactive,inactive
COc1ccc(NC(=O)N(C)C[C@H]2OCCCC[C@H](C)Oc3ccc(NC(=O)c4ccncc4)cc3C(=O)N([C@@H](C)CO)C[C@H]2C)cc1,inactive,inactive,inactive
Cc1noc(C)c1NC(=O)N(C)C[C@@H]1Oc2ccc(NC(=O)Nc3cccc4ccccc34)cc2C(=O)N([C@H](C)CO)C[C@H]1C,inactive,inactive,inactive
CCO[C@H]1CC(C)(C)NC(=S)N1,inactive,inactive,inactive
CC=C(C)C(=O)O[C@H]1[C@H](OC(C)=O)[C@]2(CO)[C@H](O)C[C@]3(C)C(=CC[C@@H]4[C@@]5(C)CC[C@H](O[C@@H]6O[C@H](C(=O)O)[C@@H](O[C@@H]7O[C@H](CO)[C@@H](O)[C@H](O)[C@H]7O)[C@H](O)[C@H]6O[C@@H]6O[C@H](CO)[C@@H](O)[C@H](O)[C@H]6O)[C@](C)(CO)[C@@H]5CC[C@]43C)[C@@H]2CC1(C)C,active,active,inactive
C[C@H](CO)N1C[C@H](C)[C@@H](CN(C)Cc2ccc(Cl)c(Cl)c2)Oc2ccc(NC(=O)CCC(F)(F)F)cc2CC1=O,inactive,inactive,inactive
CN(C)CC(=O)N[C@@H]1C=C[C@@H](CC(=O)O)O[C@@H]1CO,inactive,inactive,inactive
Cn1cnc(CCNC(=O)C[C@H]2CC[C@@H]3[C@H](COC[C@@H](O)CN3C(=O)Nc3ccc(Cl)cc3)O2)c1,inactive,inactive,inactive
C[C@@H]1CN([C@H](C)CO)C(=O)Cc2cc(NC(=O)Nc3ccc4c(c3)OCO4)ccc2O[C@@H]1CN(C)S(=O)(=O)c1cn(C)cn1,inactive,inactive,inactive
CS(=O)(=O)N1CCN(C[C@@H](O)C2CC2)CC1,inactive,inactive,inactive
C[C@@H]1CN([C@@H](C)CO)C(=O)c2cc(NC(=O)Cc3cn(C)c4ccccc34)ccc2O[C@@H]1CN(C)S(C)(=O)=O,inactive,inactive,inactive
Cc1ccc(S(=O)(=O)N(C)C[C@H]2Oc3ccc(NC(=O)CCN4CCOCC4)cc3C(=O)N([C@@H](C)CO)C[C@H]2C)cc1,inactive,inactive,inactive
C[C@H]1CN([C@@H](C)CO)C(=O)c2cccc(NC(=O)Nc3ccc(F)cc3)c2O[C@@H]1CN(C)Cc1ccc(-c2ccccc2)cc1,inactive,inactive,inactive
C[C@H]1CN([C@@H](C)CO)C(=O)c2cc(C3=CCCC3)cnc2O[C@H]1CN(C)C(=O)Nc1ccc(C(F)(F)F)cc1,inactive,active,inactive
NCc1nnnn1-c1ccccc1,inactive,inactive,inactive
C[C@@H]1CCCCO[C@H](CN(C)C(=O)c2ccncc2)[C@@H](C)CN([C@@H](C)CO)C(=O)c2cc(NC(=O)C3CCCCC3)ccc2O1,inactive,inactive,inactive
